# Measured values from paper PMC9911399, “Two distinct binding modes provide the RNA-binding protein RbFox with extraordinary sequence specificity”.
# Changes are numbered by the printed parent chain; changes in the protein carry UniProt numbers. The list shows a part of the results.
# T1: RBFOX1 RRM RbFoxmut (Fox-RRM*) (Homo sapiens, UniProt Q9NWB1 109-208, R118D;E147R;N151S;E152T)
# T1 sequence: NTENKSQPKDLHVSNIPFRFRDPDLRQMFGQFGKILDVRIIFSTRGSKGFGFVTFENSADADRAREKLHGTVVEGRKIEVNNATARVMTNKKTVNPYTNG
# B1: AGCUGCA (DNA:RNA)
# RNA: GGGAGACCGGAAUUCAGAUUGUCCAGCUGCAUUAAAUCCCGUCGUAGCCACCA
# DNA 1: CAATCTGAATTCCGGTCTCCC
# DNA 2: TGGTGGCTACGACGGGATT
# B2: CGUGUGC (DNA:RNA)
# RNA: B1 RNA with A25C, C27U, U28G, G29U, C30G, A31C
# DNA 1: CAATCTGAATTCCGGTCTCCC
# DNA 2: TGGTGGCTACGACGGGATT
# B3: GGGAUGG (DNA:RNA)
# RNA: B1 RNA with A25G, C27G, U28A, G29U, C30G, A31G
# DNA 1: CAATCTGAATTCCGGTCTCCC
# DNA 2: TGGTGGCTACGACGGGATT
# B4: CCAGUGC (DNA:RNA)
# RNA: GGGAGACCGGAAUUCAGAUUGUCCCCAGUGCUUAAAUCCCGUCGUAGCCACCA
# DNA 1: CAATCTGAATTCCGGTCTCCC
# DNA 2: TGGTGGCTACGACGGGATT
# B5: GGACAGG (DNA:RNA)
# RNA: B4 RNA with C25G, C26G, G28C, U29A, C31G
# DNA 1: CAATCTGAATTCCGGTCTCCC
# DNA 2: TGGTGGCTACGACGGGATT
# B6: UGCCUCU (DNA:RNA)
# RNA: B1 RNA with A25U, U28C, G29U, A31U
# DNA 1: CAATCTGAATTCCGGTCTCCC
# DNA 2: TGGTGGCTACGACGGGATT
# B7: ACCGAAA (DNA:RNA)
# RNA: B1 RNA with G26C, U28G, G29A, C30A
# DNA 1: CAATCTGAATTCCGGTCTCCC
# DNA 2: TGGTGGCTACGACGGGATT
# B8: UCUGGAC (DNA:RNA)
# RNA: B4 RNA with C25U, A27U, U29G, G30A
# DNA 1: CAATCTGAATTCCGGTCTCCC
# DNA 2: TGGTGGCTACGACGGGATT
# B9: ACCAACC (DNA:RNA)
# RNA: B1 RNA with G26C, U28A, G29A, A31C
# DNA 1: CAATCTGAATTCCGGTCTCCC
# DNA 2: TGGTGGCTACGACGGGATT
# B10: CUAGAGC (DNA:RNA)
# RNA: B4 RNA with C26U, U29A
# DNA 1: CAATCTGAATTCCGGTCTCCC
# DNA 2: TGGTGGCTACGACGGGATT
# B11: AGUCAGC (DNA:RNA)
# RNA: B1 RNA with C27U, U28C, G29A, C30G, A31C
# DNA 1: CAATCTGAATTCCGGTCTCCC
# DNA 2: TGGTGGCTACGACGGGATT
# B12: ACCCACA (DNA:RNA)
# RNA: B1 RNA with G26C, U28C, G29A
# DNA 1: CAATCTGAATTCCGGTCTCCC
# DNA 2: TGGTGGCTACGACGGGATT
# B13: AACACAU (DNA:RNA)
# RNA: B1 RNA with G26A, U28A, G29C, C30A, A31U
# DNA 1: CAATCTGAATTCCGGTCTCCC
# DNA 2: TGGTGGCTACGACGGGATT
# B14: UCUGAGC (DNA:RNA)
# RNA: B4 RNA with C25U, A27U, U29A
# DNA 1: CAATCTGAATTCCGGTCTCCC
# DNA 2: TGGTGGCTACGACGGGATT
# B15: GCAGCCC (DNA:RNA)
# RNA: B4 RNA with C25G, U29C, G30C
# DNA 1: CAATCTGAATTCCGGTCTCCC
# DNA 2: TGGTGGCTACGACGGGATT
# B16: GACGCAA (DNA:RNA)
# RNA: B1 RNA with A25G, G26A, U28G, G29C, C30A
# DNA 1: CAATCTGAATTCCGGTCTCCC
# DNA 2: TGGTGGCTACGACGGGATT
# B17: ACUGCGA (DNA:RNA)
# RNA: B4 RNA with C25A, A27U, U29C, C31A
# DNA 1: CAATCTGAATTCCGGTCTCCC
# DNA 2: TGGTGGCTACGACGGGATT
# B18: AUGCGUU (DNA:RNA)
# RNA: B1 RNA with G26U, C27G, U28C, C30U, A31U
# DNA 1: CAATCTGAATTCCGGTCTCCC
# DNA 2: TGGTGGCTACGACGGGATT
# B19: UGACGUG (DNA:RNA)
# RNA: B1 RNA with A25U, C27A, U28C, C30U, A31G
# DNA 1: CAATCTGAATTCCGGTCTCCC
# DNA 2: TGGTGGCTACGACGGGATT
# B20: UAGUCGU (DNA:RNA)
# RNA: B1 RNA with A25U, G26A, C27G, G29C, C30G, A31U
# DNA 1: CAATCTGAATTCCGGTCTCCC
# DNA 2: TGGTGGCTACGACGGGATT
# B21: CGAGCUG (DNA:RNA)
# RNA: B4 RNA with C26G, U29C, G30U, C31G
# DNA 1: CAATCTGAATTCCGGTCTCCC
# DNA 2: TGGTGGCTACGACGGGATT
# B22: GGCGUCU (DNA:RNA)
# RNA: B1 RNA with A25G, U28G, G29U, A31U
# DNA 1: CAATCTGAATTCCGGTCTCCC
# DNA 2: TGGTGGCTACGACGGGATT
# B23: ACGGAGC (DNA:RNA)
# RNA: B4 RNA with C25A, A27G, U29A
# DNA 1: CAATCTGAATTCCGGTCTCCC
# DNA 2: TGGTGGCTACGACGGGATT
# B24: GACGGUG (DNA:RNA)
# RNA: B1 RNA with A25G, G26A, U28G, C30U, A31G
# DNA 1: CAATCTGAATTCCGGTCTCCC
# DNA 2: TGGTGGCTACGACGGGATT
# B25: CGCCCUA (DNA:RNA)
# RNA: B1 RNA with A25C, U28C, G29C, C30U
# DNA 1: CAATCTGAATTCCGGTCTCCC
# DNA 2: TGGTGGCTACGACGGGATT
# B26: AGGUCCG (DNA:RNA)
# RNA: B1 RNA with C27G, G29C, A31G
# DNA 1: CAATCTGAATTCCGGTCTCCC
# DNA 2: TGGTGGCTACGACGGGATT
# B27: CCAAGGC (DNA:RNA)
# RNA: B4 RNA with G28A, U29G
# DNA 1: CAATCTGAATTCCGGTCTCCC
# DNA 2: TGGTGGCTACGACGGGATT
# B28: CUGGAGU (DNA:RNA)
# RNA: B4 RNA with C26U, A27G, U29A, C31U
# DNA 1: CAATCTGAATTCCGGTCTCCC
# DNA 2: TGGTGGCTACGACGGGATT
# B29: GAACAAG (DNA:RNA)
# RNA: B4 RNA with C25G, C26A, G28C, U29A, G30A, C31G
# DNA 1: CAATCTGAATTCCGGTCTCCC
# DNA 2: TGGTGGCTACGACGGGATT
# B30: CUCAGGU (DNA:RNA)
# RNA: B1 RNA with A25C, G26U, U28A, C30G, A31U
# DNA 1: CAATCTGAATTCCGGTCTCCC
# DNA 2: TGGTGGCTACGACGGGATT
# B31: AGGUGAU (DNA:RNA)
# RNA: B1 RNA with C27G, C30A, A31U
# DNA 1: CAATCTGAATTCCGGTCTCCC
# DNA 2: TGGTGGCTACGACGGGATT
# Molecular target: T1, RBFOX1 RRM RbFoxmut (Fox-RRM*)
# Test: EMSA; HiTS-Eq, 1 nM pool, 10 min; buffer printed only for the single-RNA assays: 10 mM Tris pH 7.5, 150 mM NaCl, 3.4 mM EDTA, 0.001% NP-40, 30 C
# Conditions: tags: His6 N-terminal (pET28a); label: 5' 32P
# How it was run: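 Purified RbFox RRM (wild type or mutant) was equilibrated for 10 min in 50 µL with 1 nM of a 5′-radiolabelled pool of RNA with 7 randomized nucleotides, its flanks annealed to DNA oligonucleotides, across increasing protein concentrations. Free RNA was separated by 8% native PAGE, excised, reverse-transcribed, PCR-barcoded and sequenced on an Illumina HiSeq 2500. Relative association constants came from read-count changes of each variant against the control reaction, normalised to the cognate motif.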
row,Binder,binding signal
1,B1,0.195 KA relative to UGCAUGU
2,B2,0.155 KA relative to UGCAUGU
3,B3,0.318 KA relative to UGCAUGU
4,B4,0.117 KA relative to UGCAUGU
5,B5,0.0786 KA relative to UGCAUGU
6,B6,0.0664 KA relative to UGCAUGU
7,B7,0.0941 KA relative to UGCAUGU
8,B8,0.0502 KA relative to UGCAUGU
9,B9,0.0562 KA relative to UGCAUGU
10,B10,0.072 KA relative to UGCAUGU
11,B11,0.0738 KA relative to UGCAUGU
12,B12,0.135 KA relative to UGCAUGU
13,B13,0.0837 KA relative to UGCAUGU
14,B14,0.0986 KA relative to UGCAUGU
15,B15,0.0521 KA relative to UGCAUGU
16,B16,0.0676 KA relative to UGCAUGU

row,Binder,binding signal
1,B17,0.0809 KA relative to UGCAUGU
2,B18,0.149 KA relative to UGCAUGU
3,B19,0.161 KA relative to UGCAUGU
4,B20,0.119 KA relative to UGCAUGU
5,B21,0.0958 KA relative to UGCAUGU
6,B22,0.122 KA relative to UGCAUGU
7,B23,0.0985 KA relative to UGCAUGU
8,B24,0.09 KA relative to UGCAUGU
9,B25,0.0877 KA relative to UGCAUGU
10,B26,0.166 KA relative to UGCAUGU
11,B27,0.0778 KA relative to UGCAUGU
12,B28,0.124 KA relative to UGCAUGU
13,B29,0.0937 KA relative to UGCAUGU
14,B30,0.118 KA relative to UGCAUGU
15,B31,0.0684 KA relative to UGCAUGU
